Assay [1] addresses T1, immobilized IL13Rα2 (UniProt Q14627 27-343, limits assumed).
T1 construct: also called IL13Ra2
T1 sequence (looked up): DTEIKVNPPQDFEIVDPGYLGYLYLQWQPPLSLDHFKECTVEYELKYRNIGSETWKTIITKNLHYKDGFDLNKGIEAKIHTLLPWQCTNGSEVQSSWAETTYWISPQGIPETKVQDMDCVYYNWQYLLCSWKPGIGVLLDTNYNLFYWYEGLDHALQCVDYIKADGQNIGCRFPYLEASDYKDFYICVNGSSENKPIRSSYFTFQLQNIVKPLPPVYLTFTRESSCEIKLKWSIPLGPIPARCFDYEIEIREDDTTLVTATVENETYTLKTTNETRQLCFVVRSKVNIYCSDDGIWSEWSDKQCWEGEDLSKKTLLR
The experiment in a line: yeast-displayed IL13; surface plasmon resonance with immobilized recombinant receptor, as the filing words it. An excerpt: (§1) In an effort to identify IL13 variants with increased selectivity for binding IL13Rα2 relative to IL13Rα1. To assess receptor binding various mutants were compared to wild-type IL13 ([…] […]; SEQ ID NO: 1) and the previously known […] E11Y mutant ([…] […]; SEQ ID NO: 69). […] Surface plasmon resonance with immobilized recombinant IL13Rα1 and immobilized IL13Rα2 was used to assess binding affinity. As expected, WT bound strongly to both IL13Rα1 and IL13Rα2.
In general terms: Surface plasmon resonance follows binding to a sensor surface in real time, without labels.

Assay [2] has as its target T2, immobilized recombinant IL13Rα1 (UniProt P78552 22-343, limits assumed).
T2 construct: also called IL13Ra1
T2 sequence (looked up): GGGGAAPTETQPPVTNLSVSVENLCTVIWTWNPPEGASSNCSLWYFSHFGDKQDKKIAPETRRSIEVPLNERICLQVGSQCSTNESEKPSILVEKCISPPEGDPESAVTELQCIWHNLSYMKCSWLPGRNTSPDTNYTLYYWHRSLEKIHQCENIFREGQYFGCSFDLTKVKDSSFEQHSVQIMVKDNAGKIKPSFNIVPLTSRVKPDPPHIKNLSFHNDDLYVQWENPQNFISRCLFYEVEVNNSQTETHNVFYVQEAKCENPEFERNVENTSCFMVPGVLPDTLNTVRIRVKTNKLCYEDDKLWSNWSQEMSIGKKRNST
The assay is described as above.
Excerpt: as §1

B1: wild-type IL13 (ligand)
chain: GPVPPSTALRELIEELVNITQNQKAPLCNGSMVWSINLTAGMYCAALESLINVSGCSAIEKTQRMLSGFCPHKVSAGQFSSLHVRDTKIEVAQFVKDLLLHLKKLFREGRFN
notes: the display scaffold is not described; also called WT; WT IL13
Turning to B1, the Kd (in general, a measure of binding affinity in units of concentration) in assay [1] is 18 nM; in assay [2], 69 nM.

B2: IL13 variant E11R (ligand)
chain: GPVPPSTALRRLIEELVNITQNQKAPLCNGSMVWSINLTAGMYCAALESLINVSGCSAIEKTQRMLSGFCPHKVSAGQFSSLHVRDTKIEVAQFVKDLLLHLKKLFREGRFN
notes: display scaffold not described
Consider B2, for which the Kd in assay [1] came to 15 nM; in assay [2] it was 98 nM.

B3: IL13 E11Y mutant (ligand)
chain: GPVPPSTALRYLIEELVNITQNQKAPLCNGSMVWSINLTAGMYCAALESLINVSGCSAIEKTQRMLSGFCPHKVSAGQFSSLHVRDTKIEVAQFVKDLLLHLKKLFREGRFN
notes: Previously known mutant; display scaffold not described
With B3, the Kd in assay [1] is 19 nM.

B4: IL13 variant R107K (ligand)
chain: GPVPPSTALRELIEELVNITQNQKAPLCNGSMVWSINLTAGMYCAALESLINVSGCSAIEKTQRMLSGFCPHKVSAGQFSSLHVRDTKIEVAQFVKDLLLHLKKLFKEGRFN
notes: as for B2
For the molecule B4, the Kd in assay [1] is 27 nM; in assay [2], 240 nM.

B5: IL13 variant E90L (ligand)
chain: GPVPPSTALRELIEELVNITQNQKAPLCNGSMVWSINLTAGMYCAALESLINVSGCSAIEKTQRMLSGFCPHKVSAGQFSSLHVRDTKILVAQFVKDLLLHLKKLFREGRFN
notes: as for B2
In the case of B5, the Kd in assay [1] turned out to be 27 nM.

The values above are taken from patent publication US20230405119A1 (CITY OF HOPE, published 2023).
